Consider 25 compounds from publication PMC4336329 (PLoS ONE, 2015).

The structures appear in SMILES notation. Screen size: about 310,000 compounds; about 14,000 (4.5%) showed an effect of 50% or more. The effect is printed as a negative number. The list shows a part of the results.
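Further: peak tail current of the secondary pulse compared with the same well before compound.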

Chain of human ether-à-go-go-related gene (hERG) potassium channel (Q12809 whole entry, looked up): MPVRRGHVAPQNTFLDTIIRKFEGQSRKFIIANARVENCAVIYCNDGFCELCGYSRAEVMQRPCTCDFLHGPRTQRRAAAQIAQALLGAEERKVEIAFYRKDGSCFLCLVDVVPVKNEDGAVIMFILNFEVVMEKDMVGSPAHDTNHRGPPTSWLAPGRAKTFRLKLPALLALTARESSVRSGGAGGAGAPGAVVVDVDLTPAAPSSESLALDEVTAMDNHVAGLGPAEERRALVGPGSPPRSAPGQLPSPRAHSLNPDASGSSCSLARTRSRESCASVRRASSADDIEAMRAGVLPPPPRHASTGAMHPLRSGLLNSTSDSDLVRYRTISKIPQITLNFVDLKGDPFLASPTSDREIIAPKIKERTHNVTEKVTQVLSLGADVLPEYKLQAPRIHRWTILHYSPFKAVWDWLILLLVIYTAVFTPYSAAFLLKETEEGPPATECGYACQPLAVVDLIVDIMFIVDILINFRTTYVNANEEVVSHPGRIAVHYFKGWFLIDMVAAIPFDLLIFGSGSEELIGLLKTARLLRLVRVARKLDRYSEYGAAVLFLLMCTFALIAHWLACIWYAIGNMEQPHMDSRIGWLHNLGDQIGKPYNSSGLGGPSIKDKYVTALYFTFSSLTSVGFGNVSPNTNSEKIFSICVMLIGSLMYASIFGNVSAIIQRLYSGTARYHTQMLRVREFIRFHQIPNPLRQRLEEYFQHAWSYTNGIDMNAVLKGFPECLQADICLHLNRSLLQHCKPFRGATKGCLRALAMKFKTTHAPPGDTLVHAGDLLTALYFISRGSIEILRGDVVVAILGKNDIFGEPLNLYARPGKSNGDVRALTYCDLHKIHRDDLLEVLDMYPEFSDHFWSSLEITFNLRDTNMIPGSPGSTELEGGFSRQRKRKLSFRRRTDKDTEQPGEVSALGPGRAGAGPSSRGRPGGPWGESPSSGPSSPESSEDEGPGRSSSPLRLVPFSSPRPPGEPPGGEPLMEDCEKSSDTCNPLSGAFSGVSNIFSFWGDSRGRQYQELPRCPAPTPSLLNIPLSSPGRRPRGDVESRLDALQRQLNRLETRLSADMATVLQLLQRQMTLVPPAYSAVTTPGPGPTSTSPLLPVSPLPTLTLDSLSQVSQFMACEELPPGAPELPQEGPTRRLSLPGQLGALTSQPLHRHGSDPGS

The experiment addresses human ether-à-go-go-related gene (hERG) potassium channel (human, UniProt Q12809). Kind of experiment: primary screen, population patch clamp on CHO cells stably expressing hERG.
Take `Cc1c(/C=N/NC(=O)c2cccnc2)c2ccccc2n1Cc1ccccc1`: the “hERG current change (%, negative = inhibition) at 10uM” value is on record as 15.8%.

In the case of `Cc1cc(N)n(-c2ccc(C(=O)O)cc2)n1.Cl`, the “hERG current change (%, negative = inhibition) at 10uM” value was determined as 13.6%.

With `Cc1cc(NS(=O)(=O)c2ccc(C3CCCCC3)cc2)no1`, the “hERG current change (%, negative = inhibition) at 10uM” value is 8.7%.

With `COC(=O)C(CC(=O)c1cccc(OC)c1)c1ccc(F)cc1` (stereo not shown), the “hERG current change (%, negative = inhibition) at 10uM” value is listed as -1.14%.

With `COCCNC(=S)Nc1cc(OC)c(NC(=O)c2ccco2)cc1OC`, the “hERG current change (%, negative = inhibition) at 10uM” value was -3.62%.

With `Br.N=c1n(CC(=O)O)c2ccccc2n1Cc1ccccc1Cl`, the “hERG current change (%, negative = inhibition) at 10uM” value was found to be 0.122%.

On to `O=C(CSCC(=O)N1CCCCC1)Nc1nc(-c2ccccc2)c(-c2ccccc2)s1`, for which the “hERG current change (%, negative = inhibition) at 10uM” value is 14%.

With `COc1ccc(CC(=O)Nc2ccc(S(=O)(=O)NC(C)C)cc2)cc1`, the “hERG current change (%, negative = inhibition) at 10uM” value is reported as -5.54%.

On to `OC1C2(Cc3ccccc3)CN3CCN(C2)CC1(Cc1ccccc1)C3` (stereo not shown), for which the “hERG current change (%, negative = inhibition) at 10uM” value was -1.47%.

In the case of `CCC1(c2ccccc2)NC(=O)N(CC(=O)Nc2nnc(C3CC3)s2)C1=O` (stereo not shown), the “hERG current change (%, negative = inhibition) at 10uM” value stood at 10.3%.

For `CCOC(=O)CSc1ccc(S(=O)(=O)N2CCC(C)CC2)cc1[N+](=O)[O-]`, the “hERG current change (%, negative = inhibition) at 10uM” value turned out to be 5.36%.

For the compound `Cn1c(=O)oc2cc(S(=O)(=O)N3CCCC(C(=O)Nc4ccccn4)C3)ccc21` (stereo not shown), the “hERG current change (%, negative = inhibition) at 10uM” value is recorded as -7.76%.

Consider `Cc1nn(C)cc1CNC(=O)c1cccc(Br)c1`, for which the “hERG current change (%, negative = inhibition) at 10uM” value is reported as 16.6%.

As to `Cc1ccc2c(CC(=O)N(C)c3c(N)n(Cc4ccccc4)c(=O)[nH]c3=O)coc2c1`, the “hERG current change (%, negative = inhibition) at 10uM” value was -4.72%.

`CCC(CC)N1CCN(CCc2ccccc2)C(CCO)C1` (stereo not shown): the “hERG current change (%, negative = inhibition) at 10uM” value is reported as -19%.

With `Cc1onc(-c2ccccc2Cl)c1C(=O)O/N=C(\N)c1ccc([N+](=O)[O-])o1`, the “hERG current change (%, negative = inhibition) at 10uM” value was -43.6%.

For the compound `CCN1C(=O)C(=O)N(Cc2ccc(OC)c(F)c2)C1=O`, the “hERG current change (%, negative = inhibition) at 10uM” value turned out to be 15.1%.

Regarding `O=C(Nc1ccc(F)cc1)Nc1nnc(Cc2ccccc2)s1`, the “hERG current change (%, negative = inhibition) at 10uM” value is recorded as 16%.

Take `Cc1sc2nc(C3CC3)nc(N3CCN(C(=O)c4ccc(F)cc4)CC3)c2c1C.Cl`: the “hERG current change (%, negative = inhibition) at 10uM” value is given as -69.8%.

Turning to `O=C(NCCc1ccccc1)C(=O)NCC1CCNCC1`, the “hERG current change (%, negative = inhibition) at 10uM” value is on record as 17%.

Take `Cc1ccccc1-n1c(=O)cc(N2CCN(Cc3ccccc3)CC2)[nH]c1=O`: the “hERG current change (%, negative = inhibition) at 10uM” value is 9.88%.

Turning to `O=C(Nc1nncs1)C1(c2ccccc2)CCCC1`, the “hERG current change (%, negative = inhibition) at 10uM” value was -18.8%.

Take `CC(CN1C(C)CCCC1C)OC(=O)c1ccc(Cl)cc1Cl` (stereo not shown): the “hERG current change (%, negative = inhibition) at 10uM” value is -51.7%.

As to `O=C(C[n+]1cc(-c2ccccc2)n2c1CCCCC2)c1ccc(Cl)cc1.[Br-]`, the “hERG current change (%, negative = inhibition) at 10uM” value is given as -23.4%.

Consider `Cn1c(=O)c2ccccc2n2c(CCl)nnc12`, for which the “hERG current change (%, negative = inhibition) at 10uM” value is on record as -7.9%.
